Assay results from the supplement of paper PMC6531468.
The list shows a part of the results. These are enrichments in a pooled selection; single values are uncertain. Scores sum up all selected molecules that hold the word; the word was not tested alone.

Each sequence was assayed against IMP3 full-length (UniProt O00425) (assay: 6-mer SELEX enrichment z-score vs GST control; IMP3 is the RNA-binding protein IGF2BP3; higher = more enriched by binding). Settings: construct: FL IMP3 (1-579); SELEX round: R4.
Method: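 SELEX-seq with GST-tagged full-length IMP3 and an N40 RNA pool, round 4. Each 6-mer is scored as an enrichment z-score of sequence tags containing it, normalised to the matching GST SELEX round. RNA written as DNA (T = U).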

Sequence of UniProt O00425 (O00425 whole entry): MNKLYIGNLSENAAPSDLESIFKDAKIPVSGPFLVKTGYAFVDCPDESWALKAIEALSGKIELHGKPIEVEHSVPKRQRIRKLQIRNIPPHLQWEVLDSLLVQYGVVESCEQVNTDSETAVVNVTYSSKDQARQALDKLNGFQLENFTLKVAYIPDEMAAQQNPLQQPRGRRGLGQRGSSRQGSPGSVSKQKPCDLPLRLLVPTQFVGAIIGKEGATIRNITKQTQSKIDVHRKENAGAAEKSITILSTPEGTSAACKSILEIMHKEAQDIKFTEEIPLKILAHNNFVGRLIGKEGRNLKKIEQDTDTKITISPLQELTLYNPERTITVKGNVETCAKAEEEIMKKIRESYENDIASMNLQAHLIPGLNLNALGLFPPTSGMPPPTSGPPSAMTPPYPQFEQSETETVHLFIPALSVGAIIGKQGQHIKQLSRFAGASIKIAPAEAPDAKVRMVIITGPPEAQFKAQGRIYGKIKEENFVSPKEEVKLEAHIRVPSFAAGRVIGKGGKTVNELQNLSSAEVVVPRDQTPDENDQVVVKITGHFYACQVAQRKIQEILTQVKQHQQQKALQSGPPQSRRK

Row | Sequence | 6-mer SELEX enrichment z-score
1 | TATCAG | 0.639
2 | CGATCG | -0.393
3 | GTCGGA | 1.14
4 | CCGGCA | 2.15
5 | ACTTCT | 0.051
6 | GTTGAC | -0.609
7 | GAATCC | -1.06
8 | TCTGGA | -0.024
9 | GGAGTC | 0.582
10 | TGGTGA | -0.067
11 | GGGTGC | 0.257
12 | CGCTCT | 0.18
13 | ATATGG | 0.426
14 | ATTCAG | 1.28
15 | GAGATC | -0.16
16 | TACGCC | -0.227
17 | GCATTT | 0.483
18 | TTTGGA | -0.183
19 | GGATTT | 0.159
20 | CACCGC | 0.794

Row | Sequence | 6-mer SELEX enrichment z-score
21 | ACACAG | 3.18
22 | ATATGC | 0.175
23 | AAGGAA | -0.727
24 | AAAATA | -1.29
25 | TGCGAT | -0.095
26 | CAGGCA | 3.1
27 | CATCAG | 2.62
28 | GTCCCA | -0.281
29 | TCCTGC | -0.466
30 | TCCCGG | -0.137
31 | TGCTCC | 0.033
32 | TAGCAG | 0.475
33 | ACTGTT | -0.109
34 | TAGAGT | -0.038
35 | GTACTC | -0.573
36 | CGGTCA | 0.686
37 | CTTGCA | 0.082
38 | AGCATT | 0.555
39 | TCGATA | -0.143
40 | CGCTTA | -0.022
